# Test results reported in PubChem BioAssay AID624296 (National Center for Advancing Translational Sciences (NCATS), 2012).
# “And” between values parts separate entries of the source, which are not always exact repeats. Equal values may be shown once. Hit rate of the full screen: of about 350,000 compounds, about 9,900 (2.8%) were called active. Inconclusive results, whose numbers are uncertain, are shown with a selection of clear calls. Calls come from the whole dose curve; as a rule, active = well fitted activation curve with a large enough effect; inconclusive = small, poorly fitted or top-dose-only effect; inactive = no such curve, though single readings can be large or run the other way. Where the call is inconclusive, the potency comes from a doubtful curve fit.
# Assay: A quantitative high throughput screen for small molecules that induce DNA re-replication in MCF 10a normal breast cells. For activity, positive = re-replication: % of control where 0% means no effect. Note: nearly all actives have a fitted effect of over 50% in size.
# Settings: MCF 10A DNA re-replication, Hoechst nuclear intensity, 48 h; activity, positive = re-replication: at 46.1 µM (top of the series)
# Potency is the fitted concentration of half-maximal effect; tags give direction and shape of the fitted curve.
SMILES,Potency,"activity, positive = re-replication"
CCOC(=O)c1cc(-c2csc(Nc3c(C)cc(C)cc3C)n2)on1,"inconclusive: 29.1 µM [activator, single point]",–
COc1ccc(NC(=O)CSc2nc3sc(C)cc3c(=O)n2C)c(OC)c1,inactive,–
Cc1ccccc1NC(=O)CCSc1nnnn1-c1ccccc1,inactive,–
Cn1c(CNC(=O)c2ccco2)nnc1SCCOc1ccccc1,inactive,–
COc1ccc(OCCn2c(NC(=O)c3ccco3)nc3ccccc32)cc1,active: 11.6 µM,–
CC(C)c1ccc(C2=NN(c3ccccc3)C(=O)CC2)cc1,"inconclusive: 18.4 µM [activator, partial curve, poor fit]",–
CCOc1ccc(CCNC(=O)c2cc3sc(Cl)cc3n2C)cc1OCC,inactive,–
COc1ccc(S[C@@H](CCN2CC[C@H](C)CCC2=O)c2ccccc2)cc1,active: 18.4 µM,–
COc1ccc(-c2cc(-c3ccco3)[nH]c(=O)c2C#N)cc1OC,"inconclusive: 29.1 µM [activator, single point]",–
CCC(=O)Nc1cc2nn(-c3ccc(OC)cc3)nc2cc1C,inactive,–
CCC(CC)c1nnc(NC(=O)[C@@H](NC(=O)c2cccc(C)c2)C(C)C)s1,inactive,–
CC(NCc1ccc2c(c1)OCO2)C(=O)N1CCc2ccccc21 (centres undefined),inactive,–
O=C(Nn1cc(C(=O)Nc2ccc(F)cc2F)c2ccccc2c1=O)c1cnccn1,–,inconclusive: 95% [activator]
O=C1CC(c2ccccc2)SC(N(c2ccccc2)c2ccccc2)=N1 (centres undefined),"inconclusive: 0.651 µM [activator, partial curve, poor fit]",–
CC(C)C(=O)NC(=S)Nc1ccc(CN2CCOCC2)cc1,inactive,–
CC1CCc2c(sc(NC(=O)CSc3ncn[nH]3)c2C#N)C1 (centres undefined),active: 18.4 µM,–
CC(=O)c1c(C)oc2c1cc(NS(=O)(=O)c1ccc(C(=O)O)cc1)c1ccccc12,"inconclusive: 25.9 µM [activator, single point]",–
CC(C)=CC(O)C/C(C)=C/COc1ccc2ccc(=O)oc2c1 (centres undefined),"inconclusive: 29.1 µM [activator, partial curve, poor fit]",–
O=C(CSc1nc(-c2ccco2)cc(C(F)(F)F)n1)N1CCN(Cc2ccccc2)CC1,inactive,–
COc1ccc(-c2nnc(-c3ccc(N(C)C)cc3)o2)cc1,"inconclusive: 6.51 µM [activator, partial curve, poor fit]",–
CCOc1ccc(Br)cc1S(=O)(=O)Nc1cccc(S(=O)(=O)N(C)c2ccccc2)c1,"inconclusive: 13 µM [activator, partial curve]",–
O=C(/C=C/c1ccc(OC2CSC2)cc1)c1ccccc1,"inconclusive: 20.6 µM [activator, partial curve, poor fit]",–
COc1ccc(C(=O)CSc2n[nH]c(N)n2)cc1,"inconclusive: 29.1 µM [activator, single point]",–

SMILES,Potency,"activity, positive = re-replication"
Cc1oc(-c2cccs2)nc1CN1CCC(CO)(CCOc2ccccc2)CC1,"inconclusive: 29.1 µM [activator, single point]",–
CN(c1ccc(C(=O)Nc2ccc(F)cc2F)cc1)S(=O)(=O)c1ccccc1,"inconclusive: 20.6 µM [activator, single point]",–
O=[N+]([O-])c1cc(S(=O)(=O)Nc2ccccc2)ccc1N1CCN(c2ccc(O)cc2)CC1,"inconclusive: 20.6 µM [activator, partial curve]",–
COc1ccc(C(=O)CCN2CCN(c3ccc(OC)cc3)CC2)cc1,"inconclusive: 20.6 µM [activator, single point]",–
COc1cc(NC(=O)N2CCNC2=O)cc(C(=O)Nc2cccc(C(F)(F)F)c2)c1,active: 2.06 µM,–
COC(=O)c1nn(-c2ccc(OC)cc2)c(=O)cc1O,inactive,–
CC(C)(O)C#Cc1ccc(C(=O)N2CCC(C(N)=O)(N3CCCCC3)CC2)o1,inactive,–
CCOc1cccnc1Sc1ccccc1,"inconclusive: 29.1 µM [activator, single point]",–
O=C(Nc1ccsc1C(=O)N1CCCC1)c1ccccc1,inactive,–
Nc1cc(Cl)cc2c1-c1ccc(Cl)cc1C2,"inconclusive: 25.9 µM [activator, single point]",–
Nc1c(N(C(=O)Nc2ccc(Cl)c(Cl)c2)C2CCCC2)c(=O)[nH]c(=O)n1Cc1ccccc1,"inconclusive: 20.6 µM [activator, single point]",–
COc1ccc(C(=O)C2CCN(CC(=O)Nc3ccc(C)cc3)CC2)cc1,"inconclusive: 23.1 µM [activator, single point]",–
CCN(c1ccccc1)S(=O)(=O)c1ccc(OC)c(NC(=O)CNC)c1,active: 8.2 µM,–
CCOC(=O)Cc1c(Sc2ccccc2)c2cc(C)ccc2n1C,"inconclusive: 18.4 µM [activator, single point]",–
CC(OC(=O)c1oc2ccccc2c1COc1ccccc1)C(=O)NC(N)=O (centres undefined),"inconclusive: 25.9 µM [activator, partial curve, poor fit]",–
COCCn1c(=S)[nH]c2cc(C(=O)N3CCN(Cc4ccc5c(c4)OCO5)CC3)ccc2c1=O,"inconclusive: 0.146 µM [activator, full curve, poor fit]",–
Cc1cccc(NC(=O)[C@@H](NC(=O)[C@@H]2Cc3ccccc3CN2)C(C)C)c1,inactive,–
CC(C)CC(=O)NC(=S)Nc1ccc(N2CCOCC2)c(Cl)c1,"inconclusive: 16.4 µM [activator, single point]",–
O=C(c1ccc(F)cc1)N1CCC(C(=O)N2CCN(S(=O)(=O)c3cccc(F)c3)CC2)CC1,inactive,–
COc1ccc(/C(O)=C2/C(=O)C(=O)N(CCN3CCNCC3)C2c2cccc([N+](=O)[O-])c2)cc1 (centres undefined),"inconclusive: 29.1 µM [activator, single point]",–
Cc1ccc(N(CC(=O)N(C)Cc2ccccc2)S(C)(=O)=O)cc1C,"inconclusive: 29.1 µM [activator, single point]",–
CCOc1ccc(-n2nc3ccc(N)cc3n2)cc1,active: 18.4 µM,–
O=S(=O)(NCCC1=CCCCC1)c1ccc(Br)cc1,"inconclusive: 14.6 µM [activator, partial curve, poor fit]",–

SMILES,Potency,"activity, positive = re-replication"
CCc1ccc(CSc2nccn2-c2ccccc2)cc1,"inconclusive: 18.4 µM [activator, partial curve]",–
COc1ccc(Cn2cc3c(-c4ccc(F)cc4)nnc-3c3cc(OC)c(OC)cc32)cc1,"inconclusive: 10.3 µM [activator, partial curve, poor fit]",–
O=C(CSc1nnc(C2CC2)n1CC1CCCO1)Nc1ccccc1Cl (centres undefined),inactive,–
S=C(N/N=C/c1cccs1)NC1CC2CCC1C2 (centres undefined),"inconclusive: 2.59 µM [activator, full curve]",–
Cc1cc(C)cc(NC(=O)CC23CC4CC(C2)CC(n2nnc(C)n2)(C4)C3)c1,"inconclusive: 11.6 µM [activator, partial curve, poor fit]",–
Cc1ccc(-c2ccccc2)n1-c1ccc(C(=O)O)cc1,"inconclusive: 13 µM [activator, partial curve, poor fit]",–
O=C(COc1ccc([N+](=O)[O-])cc1Cl)NCCN1C(=O)CSC1=O,inactive,–
Cc1ccc(C(=O)N2C(=S)C(c3ccc(F)cc3)=NC23CCN(C)CC3)cc1,"inconclusive: 20.6 µM [activator, partial curve, poor fit]",–
O=C(c1cc2ccccc2oc1=O)N1CCOCC1,"inconclusive: 6.51 µM [activator, single point]",–
CCc1ccc2[nH]c(=O)c(C(c3nnnn3CCOC)N3CCN(c4ccccc4)CC3)cc2c1 (centres undefined),inactive,–
CCOC(=O)C1CCCN(C(=O)c2sc3nc(-c4ccccc4)cn3c2C)C1 (centres undefined),inactive,–
O=c1c2cc(Cl)ccc2[nH]c(=S)n1Cc1cccs1,"inconclusive: 23.1 µM [activator, single point]",–
CCCCn1c(N)c(N(CC(C)C)C(=O)C2CSC3(C)CCC(=O)N23)c(=O)[nH]c1=O (centres undefined),"inconclusive: 29.1 µM [activator, single point]",–
COCCCNC(=O)c1sc2ncnc(N3CCc4ccccc4C3)c2c1C,active: 14.6 µM,–
O=C(Cc1ccc(Cl)cc1)Nc1cccc(S(=O)(=O)N2CCCCC2)c1,"inconclusive: 29.1 µM [activator, single point]",–
O=C(CS(=O)(=O)Cc1ccccc1)NCCc1ccc(F)cc1,"inconclusive: 4.11 µM [activator, partial curve, poor fit]",–
CCCCCCCCCCCCCCCC[n+]1cccc(C(=O)N(CC)CC)c1,"inconclusive: 5.17 µM [activator, full curve, poor fit] and inconclusive: 9.2 µM [activator, partial curve, poor fit]",–
Cc1ccc(N=c2c([N+](=O)[O-])nn(-c3ccccc3)n2O)c(C)c1,active: 10 µM,–
CN(CC1CCCN(CCc2ccc(Cl)cc2)C1)C(=O)c1ccco1 (centres undefined),"inconclusive: 18.4 µM [activator, single point]",–
Cn1nc(C(F)(F)F)cc1-c1ccc(/C=C(\C#N)C(=O)c2ccccc2)s1,"inconclusive: 18.4 µM [activator, single point]",–
C/C(=N\NC(=O)c1ccccc1)c1ccc(-n2ccnc2)cc1,"inconclusive: 3.66 µM [activator, partial curve, poor fit]",–
C(=C\c1ccccc1)/CSc1nnc(-c2ccccn2)n1Cc1ccco1,active: 7.94 µM,–
Nc1nc(-c2ccccc2)cc(N2CCCCC2)n1,"inconclusive: 29.1 µM [activator, single point]",–
